# Article PMC4336329 (PLoS ONE, 2015)
# The whole screen tested about 310,000 compounds, of which about 14,000 (4.5%) showed an effect of 50% or more. Effects have a minus sign here. The list shows a part of the results.
# Target: human ether-à-go-go-related gene (hERG) potassium channel (human, UniProt Q12809)
# Assay: primary screen, population patch clamp on CHO cells stably expressing hERG
# 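Further: peak tail current of the secondary pulse compared with the same well before compound.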
# human ether-à-go-go-related gene (hERG) potassium channel, sequence (Q12809 whole entry, looked up): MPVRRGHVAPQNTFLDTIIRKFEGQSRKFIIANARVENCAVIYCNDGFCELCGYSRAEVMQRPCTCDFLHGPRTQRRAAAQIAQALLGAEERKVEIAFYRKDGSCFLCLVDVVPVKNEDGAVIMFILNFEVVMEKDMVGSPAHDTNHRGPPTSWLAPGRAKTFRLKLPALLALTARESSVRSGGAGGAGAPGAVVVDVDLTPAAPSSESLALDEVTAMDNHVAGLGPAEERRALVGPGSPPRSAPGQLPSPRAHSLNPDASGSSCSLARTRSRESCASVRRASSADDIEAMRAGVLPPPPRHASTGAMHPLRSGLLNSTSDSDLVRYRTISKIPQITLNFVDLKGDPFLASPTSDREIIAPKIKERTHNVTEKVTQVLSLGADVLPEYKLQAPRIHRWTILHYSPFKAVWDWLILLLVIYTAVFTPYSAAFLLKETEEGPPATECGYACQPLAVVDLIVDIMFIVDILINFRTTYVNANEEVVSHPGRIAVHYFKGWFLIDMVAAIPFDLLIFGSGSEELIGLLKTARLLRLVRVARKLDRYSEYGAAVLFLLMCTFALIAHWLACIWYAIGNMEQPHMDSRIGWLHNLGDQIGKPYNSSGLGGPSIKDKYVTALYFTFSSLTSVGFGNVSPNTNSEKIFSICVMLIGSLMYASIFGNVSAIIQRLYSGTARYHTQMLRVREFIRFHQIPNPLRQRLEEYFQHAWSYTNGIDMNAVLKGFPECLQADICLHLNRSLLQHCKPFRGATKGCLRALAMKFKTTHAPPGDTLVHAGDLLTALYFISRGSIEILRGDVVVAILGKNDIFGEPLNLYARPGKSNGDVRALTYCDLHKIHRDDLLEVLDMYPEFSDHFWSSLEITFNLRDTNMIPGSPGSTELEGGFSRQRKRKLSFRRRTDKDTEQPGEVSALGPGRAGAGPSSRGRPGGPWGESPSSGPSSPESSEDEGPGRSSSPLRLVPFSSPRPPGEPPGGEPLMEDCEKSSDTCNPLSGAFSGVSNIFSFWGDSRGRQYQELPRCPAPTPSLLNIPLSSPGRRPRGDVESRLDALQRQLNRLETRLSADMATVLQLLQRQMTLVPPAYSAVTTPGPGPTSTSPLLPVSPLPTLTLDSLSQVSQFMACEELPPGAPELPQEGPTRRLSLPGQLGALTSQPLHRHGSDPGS
row,Structure (SMILES),"hERG current change (%, negative = inhibition) at 10uM [%]"
1,CN(CC(=O)N1CCN(Cc2ccccc2)CC1)S(=O)(=O)c1ccc(Br)cc1,-40.2
2,COc1ccc(-c2csc(N3C(=N)SCC3=O)n2)cc1,-26.8
3,COc1cc(/C=C2/CCCC(C(=O)C(F)(F)F)=C2O)ccc1O,10.4
4,O=C(Cn1nc(C(F)(F)F)c2c1CCCC2)N1CCOCC1,20.1
5,CC(Cc1ccccc1)NC(N)=O (stereo not drawn),17.5
6,O=C(CNC(=O)c1ccc(Cl)c([N+](=O)[O-])c1)NCC1CCCO1 (stereo not drawn),13.7
7,N#Cc1ccsc1NC(=O)CSc1nnnn1-c1ccc(O)cc1,-6.98
8,ON(Cc1c(F)cccc1Cl)Cc1c(F)cccc1Cl,5.68
9,O=C(C1CCN(C2CCN(C/C(Cl)=C/c3ccccc3)CC2)CC1)N1CCOCC1,-64.1
10,CN(C)c1ccc(CNn2cnnc2SCC(=O)NC(C)(C)C)cc1,23.4
11,CCCCn1c(CCCNC(=O)c2ccco2)nc2ccccc21,-40.5
12,CCCCN1CC2([N+](=O)[O-])C=CC(=O)C([N+](=O)[O-])(C1)C2CC(=O)c1ccccc1 (stereo not drawn),7.36
13,Cc1cc(C)c2c(N)c(C(=O)Nc3cccc(C)c3C)sc2n1,9.59
14,Cc1cc(Nc2ccc(Cl)cc2)n2nnnc2n1,7.83
15,COc1ccc(-c2ccc([C@H]3[C@H]4C=CC[C@@H](C)[C@@H]4C(=O)N3Cc3ccccc3)c(F)c2)cc1OC,6.16
16,Cc1ccc2cc(C#N)c(NCCNC(=O)C3CC3)nc2c1C,7.18
17,Cc1cc(C)n(CCNc2nc3nonc3nc2N2CCCCC2)n1,-3.06
18,CC(C)COC(=O)CCn1[nH]c(=O)c2ccccc2c1=O,7.42
19,O=C(CSCc1ccc(Cl)cc1)N/N=C/c1ccco1,-3.12
20,COc1ccc(CN2C(=O)CN=C2Nc2cccc(C)c2C)cc1.Cl,-20.1
21,COc1ccc(NC(=O)Cn2cc(C(=O)c3ccco3)c3ccccc32)cc1,-15
22,COC(=O)Cc1cc(=O)n2[nH]c(C(F)(F)F)nc2n1,11.1
23,Cc1ccc2nc(-c3cccc(Br)c3)cc(C(=O)Nn3cnnc3)c2c1,5.71

row,Structure (SMILES),"hERG current change (%, negative = inhibition) at 10uM [%]"
1,C=CCOC(=O)C1=C(C)OC(N)=C(C#N)C1c1ccc2c(c1)OCO2 (stereo not drawn),9.17
2,O=C(CN1C(=O)c2cccnc2C1=O)c1ccccc1,-1.88
3,CN=C1C=C/C(=N/N=c2\ccn(O)cc2C)C=C1C,-32.6
4,CCCCC(=O)NCCc1ccc(OC)cc1,6.41
5,O=C(c1ccc(-c2ccccc2)cc1)C1CCCN(C(=O)c2cncs2)C1 (stereo not drawn),-22.9
6,CCc1nc(SCC(=O)NCCc2ccccc2)n[nH]1,-3.42
7,O=C(CSc1ccc2nnc(-c3ccccn3)n2n1)NCc1ccc2c(c1)OCO2,-74.4
8,COc1cc(COc2ccc3c(C)c(Cc4ccccc4)c(=O)oc3c2)cc(OC)c1OC,-15.8
9,CCCNC(=O)c1ccc(C2SCC(=O)N2CCc2ccccc2)cc1 (stereo not drawn),-4.02
10,Cc1noc(C)c1C(=O)Nc1ccc(-c2nnc3n2CCCCC3)cc1,5.46
11,COc1cc(/C=N/NC(=O)c2c(C)nc3ccc(Cl)cn23)cc(OC)c1OC,14.4
12,COc1ccc(-n2nnnc2SCC(=O)Nc2ccccc2)cc1,16
13,CCn1cnc2scc(-c3ccc(C)c(C)c3)c2c1=O,-23.1
14,Cc1cccc(CNc2ccc(S(=O)(=O)N3CCCCC3)cc2)c1,-38.6
15,O=C(Cc1ccccc1)Nc1ccccc1C(=O)Nc1ccc(C(=O)O)cc1,1.41
16,CCOC(=O)C1(CC)NC(c2ccc(OC)cc2OC)C2C(=O)N(C)C(=O)C21 (stereo not drawn),2.74
17,COCCCNCC(O)COc1ccccc1F (stereo not drawn),5.58
18,COc1ccc(OC)c2sc(NC(=O)c3ccc(Cl)s3)nc12,11.4
19,CC(CNC(=O)CN1C(=O)CCSc2ccccc21)c1ccccc1 (stereo not drawn),12.9
20,Clc1ccc(C[n+]2csc3ccccc32)cc1.[Br-],9.64
21,O=C(COC(=O)CCc1nc2ccccc2c(=O)[nH]1)Nc1ccccc1Cl,2.62
22,Cc1nc2c(ccc3nc(NC(=O)C4CC4)sc32)s1,5.71
23,CCC(O)CNC(=O)CCc1nnc(C2(c3ccc(Cl)cc3)CCC2)o1 (stereo not drawn),11.3

row,Structure (SMILES),"hERG current change (%, negative = inhibition) at 10uM [%]"
1,CC(=O)N1c2ccccc2NC2=C(C(=O)CCC2)C1c1ccco1 (stereo not drawn),13.4
2,CCCCc1cc(=O)oc2cc(OCC(=O)N3CCC(C(=O)O)(c4ccccc4)CC3)ccc12,-1.97
3,CCOC(=O)C1CCN(C(=O)CSc2cc(=O)n(CC)c3ccccc23)CC1,-29.4
4,Cc1c2n(c3ccccc13)CCN(C)C2,10.5
5,C=CCn1c(O)c(C=Nc2ccc(OC)cc2C)c(=O)[nH]c1=O,7.24
6,Nc1nc(-c2ccccc2)nn1C(=O)c1ccco1,-4.19
7,O=C(c1ccc(C(=O)N2CCN(c3ccccc3F)CC2)nc1)N1CCN(c2ccccc2F)CC1,-3.5
8,CCN1/C(=C2/SC(=S)N(C)C2=O)C=Cc2cc(C)ccc21,-1.96
9,O=S(=O)(c1ccc(OC(F)(F)F)cc1)N1CCCC(c2ccccc2)C1 (stereo not drawn),14.5
10,CCOC(=O)c1ccc2[nH]c3c(c2c1)CCCC3,-19.2
11,Cc1ccc(C)c(S(=O)(=O)Nc2ccc(C(=O)NCCCN3CCOCC3)cc2)c1,-9.18
12,CCCN(CCC)C(=O)C1CC(=O)OC12CCCCC2 (stereo not drawn),7.26
13,O=C(O)c1ccc(N/N=C/c2ccc(-c3ccc(Cl)cc3Cl)o2)cc1,10.7
14,O=C(CN(CCCN1CCOCC1)C(=O)Cn1nnc(-c2ccc(F)cc2)n1)NC1CCCCC1,-14.5
15,CCOC(=O)C1=C(c2ccccc2)NC(=S)NC1C (stereo not drawn),10.1
16,COc1cc(N)ccc1NC(=O)c1cc2ccccc2o1,13.1
17,CCc1ccc2c(CC(=O)NNC(=O)c3ccncc3)coc2c1,1.23
18,CNC(=O)N(C)c1nnc(C(C)(C)C)s1,1.9
19,CC(C)n1c(N2CCN(C(=O)Nc3ccc(F)cc3F)CC2)nc2ccccc21,-26.3
20,COc1ccc(CCNC(=O)C(=O)NCC2OCCN2S(=O)(=O)c2ccc(C)cc2)cc1 (stereo not drawn),-14.8
21,COC(=O)[C@@H](NC(=O)Nc1ccc2c(c1)OCCO2)C(C)C,13.3
22,Cc1ccc(-c2cc(C(=O)NCCCN3CCCC3)c3ccccc3n2)cc1C,-37.5
23,CNC(=O)CSc1cn(CC(=O)N(C(C)C)C(C)C)c2ccccc12,-1.53

row,Structure (SMILES),"hERG current change (%, negative = inhibition) at 10uM [%]"
1,Cc1cc(NC(=O)CSc2nnc(C3CC3)n2-c2ccccc2)no1,-13
2,COc1cccc(C=Nc2ccc3c(c2)OCCO3)c1O,9.98
3,COc1ccc2c(C(=O)CN(C)C3CCCCC3)c[nH]c2c1,9.09
4,CCOC(=O)CN1C(=O)N[C@@H](CCc2ccccc2)[C@H](C(C)=O)[C@H]1C,-1.65
5,Cc1ccc2[nH]c(O)c(N=NC(=O)C3CC3c3ccccc3)c2c1Br (stereo not drawn),-55.7
6,O=C(COc1ccc2c(c1)CCC2)Nc1ccccn1,5.23
7,Nc1nc(Br)c2ccccc2c1-c1ccccc1,9.89
8,O=C(Nc1ccccc1)c1ccccc1NC(=O)c1ccccc1[N+](=O)[O-],-9.99
9,CCCOc1ccccc1C1CC(=O)NC(C)=C1C(=O)OCC(C)C (stereo not drawn),-0.723
10,CSC1=NSC2=NC(=O)/C(=C\c3cccs3)C(=N)N12,3.68
11,CCOc1ccc(S(=O)(=O)N2CCN(Cc3ccccc3)CC2)c2cccnc12,-42.6
12,CC(=O)Nc1cccc(NC(=S)Nc2cccc3ccccc23)c1,7.09
13,O=C(c1ccc(C(F)(F)F)cc1)C1CCCN(C(=O)CCn2cncn2)C1 (stereo not drawn),-33.8
14,COc1ccc(N2CCCn3c2nc2c3c(=O)n(CCN3CCOCC3)c(=O)n2C)cc1,-14
15,Cc1ccc(-c2ccc(SCC(=O)NC3CCCCC3)nn2)cc1,9.69
16,CC(C)(C)OC(=O)CC[C@@H](C(=O)NCCCCCCCCCCC(=O)N1CCN(C(=O)OC(C)(C)C)CC1)n1cc(CCCCCNC(=O)OC(C)(C)C)nn1,4.12
17,COc1ccccc1OCC(=O)Nc1cc(Cl)ccc1Oc1ccccc1,-2.49
18,O=C(CNCC1CCCO1)Nc1ccccc1N1CCCCCC1.O=C(O)C(=O)O (stereo not drawn),-6.51
19,CCC(=O)N1CCN(C(=O)c2ccccc2)CC1,1.82
20,CC1CN(c2ccc([N+](=O)[O-])cc2F)CCN1C(=O)c1ccco1 (stereo not drawn),-62
21,Cc1cc(C)n(CC(=O)NC2CCCc3c2cnn3-c2ccccc2F)n1 (stereo not drawn),-0.23
